Data as given in paper PMC4509486 (2015).

B1: STIM1_([…])-CFP [human] / YFP-SOAR [not stated] (parent complex)
chain 1: LSHSHSEKATGTSSGANSEESTAAEFCRIDKPLCHSEDEKLSFEAVRNIHKLMDDDANGDVDVEESDEFLREDLNYHDPTVKHSTFHGEDKLISVEDLWKAWKSSEVYNWTVDEVVQWLITYVELPQYEETFRKLQLSGHAMPRLAVTNTTMTGTVLKMTDRSHRQKLQLKALDTVLFGPPLLTRHNHLKDFMLVVSIVIGVGGCWFAYIQNRYSKEHMKKMMKDLEGLHRAEQSLHDLQERLHKAQEEHRTVEVEKVHLEKKLRDEINLAKQEAQRLKELREGTENE
chain 2: not shown

Variants of: B1
Experiment: FRET (CFP donor / YFP acceptor) in HEK293 cells; resting, before ionomycin; read off a plot

response [E_app] | Variant
~0.13 | chain 1 L243G
~0.045 | chain 1 L239G
~0.02 | chain 1 L236G
